In PubChem BioAssay AID1347073 (National Center for Advancing Translational Sciences (NCATS), 2019):
About 200 (0.44%) of roughly 45,000 compounds were called active. Not shown: some 7% with an inconclusive outcome. Calls follow the shape of the dose curve; as a rule, active = well fitted activation curve with a large enough effect; inconclusive = small, poorly fitted or top-dose-only effect; inactive = no such curve, though single readings can be large or run the other way. The list shows a part of the results.
Potency is read from the fitted curve at half-maximal effect.

Assay: qHTS of TDP-43 Inhibitors: NCGC Sytravon Library Screen; also: nearly all actives have a fitted effect of over 55% in size; as to growth rescue (activation): 0% is about no effect
Conditions: yeast TDP-43 toxicity rescue, BacTiter-Glo growth, 24 h; series mostly up to 46.1 µM; growth rescue (activation): at the top concentration
Outline: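 TDP-43-expressing yeast, pregrown in raffinose, seeded at OD600 0.02 in galactose medium with compound for 24 hr at 30 deg C. Growth read by BacTiter-Glo luminescence, so rescue of toxicity appears as activation.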
For CCCC(C(=O)NC(C)(C)C)N(C(=O)c1snc(C(N)=O)c1N)c1ccc2c(c1)OCCO2 (stereo not drawn), the “growth rescue (activation)” value was inactive: -0.923%. For CCC1=C/C(=C/c2sc3ccccc3[n+]2CC)CC(C)(C)C1, the “growth rescue (activation)” value was inactive: 2.83%. In the case of O=C(O)c1cc(Cl)c(Cl)cc1C(=O)Nc1cccc2cccnc12, the “growth rescue (activation)” value is reported as inactive: 11.7%. For CS(=O)(=O)N1N=C(c2ccco2)CC1c1ccccc1Cl (stereo not drawn), the “growth rescue (activation)” value was inactive: 7.07%. With COc1ccc(CSc2nnc(-c3ccncc3)n2N)cc1 the “growth rescue (activation)” value was inactive: 9.35%. With O=C(C1=C(O)C(=O)N(CC2CCCO2)C1c1ccc(Cl)cc1Cl)c1ccco1 (stereo not drawn) the “growth rescue (activation)” value was inactive: -13.8%. For Cc1[nH]n(-c2ccccc2)c(=O)c1CCO, the “growth rescue (activation)” value was inactive: -7.37%. With CC(=O)c1c(C)[nH]c(C(=O)N(CCc2ccccc2)Cc2ccccc2)c1C the “growth rescue (activation)” value was inactive: 4.71%. With O=C(CSc1nccc(=O)[nH]1)NC1CCCC1 the “growth rescue (activation)” value was inactive: 6.84%. With Cc1ccc(N=c2c([N+](=O)[O-])nn(-c3ccc4c(c3)OCCO4)n2O)cc1F the “growth rescue (activation)” value was inactive: 12%. With COc1ccc(S(=O)(=O)NCC(=O)N(CC(=O)NCC2CCCO2)Cc2ccc(F)cc2)cc1 (stereo not drawn) the “growth rescue (activation)” value was inactive: -20%. In the case of COc1ccc(C(=O)C2CCCN(C(=O)c3n[nH]c4c3CCCC4)C2)cc1OC (stereo not drawn), the “growth rescue (activation)” value is reported as inactive: 9.14%. For COc1cc(/C=C2\C(=N)N3N=C(C(C)C)SC3=NC2=O)ccc1OCCOc1ccc(NC(C)=O)cc1, the “growth rescue (activation)” value was inactive: -23.4%. For COc1ccc(CNC(=O)C2Cc3ccccc3CN2C(=O)c2ccco2)cc1 (stereo not drawn), the “growth rescue (activation)” value was inactive: 11.5%. For COc1ccc2c(c1)C(=O)C(=O)N2, the “growth rescue (activation)” value was inactive: 9.71%. For CC(CCc1ccccc1)NC(=O)COC(=O)C1CCC(C(C)(C)C)CC1 (stereo not drawn), the “growth rescue (activation)” value was inactive: 9.01%. In the case of COc1ccccc1N1CCN(C(=O)C2CCCN(S(=O)(=O)c3ccc4c(c3)CCCN4C(C)=O)C2)CC1 (stereo not drawn), the “growth rescue (activation)” value is reported as inactive: -24%. In the case of COc1cccc(Oc2coc3c(CN4CCOCC4)c(O)ccc3c2=O)c1, the “growth rescue (activation)” value is reported as inactive: -6.56%. For O=C1c2ccccc2C(=O)c2c1cccc2N1CCN(C/C=C/c2ccccc2)CC1, the “growth rescue (activation)” value was inactive: 24.5%. In the case of CC(C)Oc1ccc(C(=O)NCC(=O)O)cc1, the “growth rescue (activation)” value is reported as inactive: 27.3%. With CCOC(=O)c1ccc(S(=O)(=O)NNC(=O)COc2cccc(C)c2)cc1 the “growth rescue (activation)” value was inactive: 0.917%. With CCCCOC(=O)NCN1C(=O)C2C3C=CC(C3)C2C1=O (stereo not drawn) the “growth rescue (activation)” value was inactive: 20.6%. In the case of O=C(Nc1ccc(Cl)cc1)c1ccc(S(=O)(=O)N2CCOCC2)cc1, the “growth rescue (activation)” value is reported as inactive: 3.16%. In the case of Cc1ccc(S(=O)(=O)N(C)C)cc1NC(=O)COC(=O)c1ccc2c(c1)OCO2, the “growth rescue (activation)” value is reported as inactive: 10.3%. With O=S(=O)(c1ccc(Cl)cc1)N1CCN(C(=S)NCC2CCCO2)CC1 (stereo not drawn) the “growth rescue (activation)” value was inactive: -7.38%. With C/C(=N\Nc1cccc(C(=O)O)c1)c1ccc(Cl)s1 the “growth rescue (activation)” value was inactive: -91.8%. For CC(=O)Nc1ccc(NC(=O)CS(=O)(=O)Cc2ccccc2)cc1, the “growth rescue (activation)” value was inactive: 5.66%. In the case of Cc1cc2c(cc1C)NC(c1cccnc1)C1=C(CC(C)(C)CC1=O)N2 (stereo not drawn), the “growth rescue (activation)” value is reported as inactive: 20.6%. With CC(C)NS(=O)(=O)c1ccc(CCC(=O)Nc2ccc3c(c2)OCCO3)cc1 the “growth rescue (activation)” value was inactive: 4.97%. For COc1cccc(OC2OC3COC(C)(C)OC3C(O)C2NC(C)=O)c1 (stereo not drawn), the “growth rescue (activation)” value was inactive: -2.89%. In the case of COCCCNC(=S)NNC(=O)Cn1nc(C)c(Br)c1C, the “growth rescue (activation)” value is reported as inactive: 15.9%. In the case of OCCC1CN(Cc2cnc(-c3ccc(Cl)cc3)nc2)CCN1C1CCCC1 (stereo not drawn), the “growth rescue (activation)” value is reported as inactive: 25.1%. In the case of COc1ccc(/C=C(\C#N)C(=O)OCC(=O)Nc2c(C)cccc2C(C)C)cc1, the “growth rescue (activation)” value is reported as inactive: -3.26%. For O=C(NC1CCCc2ccccc21)c1ccc(Br)cc1 (stereo not drawn), the “growth rescue (activation)” value was inactive: 15.3%. In the case of COc1ccccc1-c1cc(C(=O)Nc2cccnc2Cl)no1, the “growth rescue (activation)” value is reported as inactive: -7.32%. For CCN1CCN(C(c2cccc(OC)c2)c2sc3nc(C)nn3c2O)CC1 (stereo not drawn), the “growth rescue (activation)” value was inactive: -1.57%. For CCOC(=O)CCC(=O)NNC(=O)c1ccc(NC(=O)c2ccccc2)cc1, the “growth rescue (activation)” value was inactive: -3.32%. With CNc1cncc(-c2ccc(OC)c(OC)c2)n1 the Potency was active: 11.2 µM. For COc1cc2c(cc1OC)CN(c1ccc(C(N)=O)cc1[N+](=O)[O-])CC2, the “growth rescue (activation)” value was inactive: 23.2%. In the case of O=C(CN1CCNCC1)NCCSc1ccc(Cl)cc1, the “growth rescue (activation)” value is reported as inactive: -9.13%. With COc1ccccc1S(=O)(=O)Nc1ccc(-c2nnc3n2CCCCC3)cc1 the “growth rescue (activation)” value was inactive: 10.4%. In the case of COc1ccc(CN2CCNC(=O)C2CC(=O)N(C)Cc2ccon2)c(OC)c1 (stereo not drawn), the “growth rescue (activation)” value is reported as inactive: 3.65%. In the case of O=C(CNc1cc(S(=O)(=O)N2CCCC2)ccc1OCC(F)(F)F)Nc1cccc(C(F)(F)F)c1, the “growth rescue (activation)” value is reported as inactive: 8.87%. With CCOc1cc(NC(=O)CCl)c(OCC)cc1NC(=O)CCl the “growth rescue (activation)” value was inactive: 6.14%. For Oc1ccc(/C=N/Nc2nc(-c3ccc(Cl)cc3)cc(C(F)(F)F)n2)cc1, the “growth rescue (activation)” value was inactive: 12.7%. In the case of CCCn1c(N)c(N(CCOC)C(=O)CSc2cc(C)c3ccccc3n2)c(=O)[nH]c1=O, the “growth rescue (activation)” value is reported as inactive: 5.62%. With Cc1ccccc1NC(=S)N(CCN(C)C)C(C)c1ccco1 (stereo not drawn) the “growth rescue (activation)” value was inactive: 28.2%. For Cc1cccc(N2CCN(C(=O)c3ccc4c(c3)N(Cc3ccccc3)C(=O)c3ccccc3S4(=O)=O)CC2C)c1 (stereo not drawn), the “growth rescue (activation)” value was inactive: 27.9%. For Cc1ccc(-c2nc(S(=O)(=O)c3ccc(C)cc3)c(SCC(N)=O)o2)cc1, the “growth rescue (activation)” value was inactive: 16.3%. With CCOC(=O)CC(NC(=O)Cn1nnc(-c2ccccc2Cl)n1)c1ccc(OC)cc1 (stereo not drawn) the “growth rescue (activation)” value was inactive: -1.99%. With CC1CCCCC1NC(=O)CN(C)S(=O)(=O)c1cccc2cccnc12 (stereo not drawn) the “growth rescue (activation)” value was inactive: 4.03%. In the case of CC1CN(S(=O)(=O)c2cccc(C(=O)Nc3ccc(S(=O)(=O)Nc4ncccn4)cc3)c2)CC(C)O1 (stereo not drawn), the “growth rescue (activation)” value is reported as inactive: -8.81%. With CC(=O)c1ccc(OC2(C)CCN(Cc3cc4ccccc4[nH]3)C2)cc1 (stereo not drawn) the “growth rescue (activation)” value was inactive: 9.82%.
